According to the supplement of paper PMC10126150:
Values marked as one replicate rest on one cluster of the flow cell; about a third of the high ones do not repeat.
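Also: ATP exposure 15 min at 22 °C before imaging.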

Each sequence was assayed on ATP (assay: switch fluorescence ratio, 500 uM ATP over buffer (Cy3 cluster intensity, sum of 5 cycles each) (fold (ratio)); higher = stronger signal-on switching upon ATP binding; sequences stand for … in TCGTCGGCAGCGTCAGATGTGTATAAGAGACAGTTTTTTTTTTTTTTTTTTTTTTTTT…TC). Conditions: aptamer strand: ATP DNA aptamer (quencher-CACCTGGGGGAGTATTGCGGAGGAAGG + anchor), 100 nM annealed; ATP concentration: 500 uM; one replicate.
Method in brief: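 Cy3-labelled switching-strand clusters on a modified Illumina MiSeq flow-cell were annealed to 100 nM quencher-labelled ATP aptamer and imaged first in selection buffer, then after 15 min with 500 uM ATP at 22 °C. NaOH stripping and re-annealing separated each of five buffer/ATP cycles, and clusters outside 100-1000 RFU were excluded. The fluorescence ratio sums target-cycle Cy3 intensity over buffer-cycle Cy3 intensity per cluster and averages it per switch-domain sequence.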
For GGAAGCAAGT, the switch fluorescence ratio was 1.07. Sequence CAAATTAAGG has a switch fluorescence ratio of 0.999. Work on CAGCTTAGTT yielded a switch fluorescence ratio of 0.994. TGTCATTTTT showed a switch fluorescence ratio of 1. Sequence ACTTGTCCTG has a switch fluorescence ratio of 1.01. ACCCCCCCAA gave a switch fluorescence ratio of 1.74. With ATGATCGATC the switch fluorescence ratio was 0.971. With GAAGCTTAGT the switch fluorescence ratio was 0.966. ACTACACCCC gave a switch fluorescence ratio of 1.39. Sequence CCAAAAACGG has a switch fluorescence ratio of 1.06. In the case of CTTGGGCGAA, the switch fluorescence ratio is reported as 0.989. AATCTGGGCT gave a switch fluorescence ratio of 0.981. Work on ATTGCGTTAA yielded a switch fluorescence ratio of 0.972. AAAGGTATCG was tested, and the switch fluorescence ratio was 0.99. TGAGGTGTGG was tested, and the switch fluorescence ratio was 0.919. For GTTGCCACAT, the switch fluorescence ratio was 1.02. AGGCAATTGC showed a switch fluorescence ratio of 1. Sequence GGAAGACTTT has a switch fluorescence ratio of 1. For AGTACATGGT, the switch fluorescence ratio was 0.999. GACTTAATCT showed a switch fluorescence ratio of 1.05. TGCCAGAATA was tested, and the switch fluorescence ratio was 0.992. With CAAGGCTAA the switch fluorescence ratio was 1.05. With TTGGCTTGTT the switch fluorescence ratio was 0.999. With CAACAATGAA the switch fluorescence ratio was 1.02. GGAACTCGTT was tested, and the switch fluorescence ratio was 1.02. For CACAAGAACC, the switch fluorescence ratio was 1.05. With TCAAAAGCTG the switch fluorescence ratio was 0.972. TGTGGGCACC gave a switch fluorescence ratio of 0.934. Sequence ATGTGAGGT has a switch fluorescence ratio of 1.06. CCGTAGATCA showed a switch fluorescence ratio of 1.34. TGATGAATCT was tested, and the switch fluorescence ratio was 1.05. In the case of CAAAGATAAC, the switch fluorescence ratio is reported as 1.02. Sequence CCGGTAAAGC has a switch fluorescence ratio of 1.31. In the case of GTTAATGCTT, the switch fluorescence ratio is reported as 0.969. Work on CGCTTATGTT yielded a switch fluorescence ratio of 1.04. GACGATGGAC showed a switch fluorescence ratio of 2.07. In the case of GTGTCATCGA, the switch fluorescence ratio is reported as 1.03. TTAGGCTATG showed a switch fluorescence ratio of 0.965. For ATCGGCAGCA, the switch fluorescence ratio was 1.04. In the case of GCATCTAAGG, the switch fluorescence ratio is reported as 1.03. GTCAGGGACG was tested, and the switch fluorescence ratio was 0.969. AGTACCTCCA gave a switch fluorescence ratio of 1.08. Work on GTCCCTCATT yielded a switch fluorescence ratio of 0.953. TATAGGGTTA gave a switch fluorescence ratio of 1.02. With TCAGTAGGGC the switch fluorescence ratio was 1.06. CTATTTAGGT showed a switch fluorescence ratio of 0.98. With GGAACCATTG the switch fluorescence ratio was 0.999. With CATGCGTTAC the switch fluorescence ratio was 3.65. In the case of TGACCTATGC, the switch fluorescence ratio is reported as 1.11. TGAGTAAGCT was tested, and the switch fluorescence ratio was 1.03. GCCCTACAGC gave a switch fluorescence ratio of 1.06. For CCAAGTCTTT, the switch fluorescence ratio was 1.02. AATACGCTAA was tested, and the switch fluorescence ratio was 1.4. Sequence TTGCTCGG has a switch fluorescence ratio of 1.02. Work on GGCGCTGCAC yielded a switch fluorescence ratio of 1.13. TAAAGCCCTT gave a switch fluorescence ratio of 1.07. For GGCTATCGCA, the switch fluorescence ratio was 1.05. Sequence GCGTCAGGGC has a switch fluorescence ratio of 1.03. Work on GTGTGAAAAA yielded a switch fluorescence ratio of 0.985. Work on TTGGTTAATC yielded a switch fluorescence ratio of 1.04. With ATAGGAATTC the switch fluorescence ratio was 1.02. ACGAAGCAGT was tested, and the switch fluorescence ratio was 3.9. GGCGTTATCG gave a switch fluorescence ratio of 1.02. Work on TGTTGCCTAA yielded a switch fluorescence ratio of 0.975. Work on GCTCGAGCGG yielded a switch fluorescence ratio of 0.998. ATATAAAGAG showed a switch fluorescence ratio of 1.02. AAGGGCTGAG gave a switch fluorescence ratio of 0.961. Work on ATCTCGCCAT yielded a switch fluorescence ratio of 1.07. Sequence AAGTCGTTTT has a switch fluorescence ratio of 1. TATAACCCTG showed a switch fluorescence ratio of 0.982. Sequence TAAGTCCTGG has a switch fluorescence ratio of 0.965. In the case of TATTATTACT, the switch fluorescence ratio is reported as 1. AGTTTATGAG was tested, and the switch fluorescence ratio was 1.02. ATTATGGTCC gave a switch fluorescence ratio of 0.949. For TGACCGCGAG, the switch fluorescence ratio was 1.03. For TCCGTGCGTA, the switch fluorescence ratio was 1.26. TTACGAATTA was tested, and the switch fluorescence ratio was 0.988. AGTTGAGCAC gave a switch fluorescence ratio of 1.04. TTGATTGCCG gave a switch fluorescence ratio of 0.97. ACACCCTGGC showed a switch fluorescence ratio of 1.26. Work on ATGGAAGTAT yielded a switch fluorescence ratio of 1.04. Sequence TTGAGTTAAC has a switch fluorescence ratio of 1.03. For GTAGTCGTCC, the switch fluorescence ratio was 1.01. Work on AACGTAACCG yielded a switch fluorescence ratio of 1.06. GCACTCTACG showed a switch fluorescence ratio of 1.31. In the case of CCCCTATTTA, the switch fluorescence ratio is reported as 0.968. Sequence ATTGACATTC has a switch fluorescence ratio of 1.07. For GCATATGCCG, the switch fluorescence ratio was 0.991. CGCCACCGC showed a switch fluorescence ratio of 1.14. For GAGCGATCAC, the switch fluorescence ratio was 1.22. AGAGTGGAGT gave a switch fluorescence ratio of 1.04. GACGCTGCAT gave a switch fluorescence ratio of 2.44. CCACGAGTGC showed a switch fluorescence ratio of 1.04. Work on ACATCATCTT yielded a switch fluorescence ratio of 0.985. TATTATATAA showed a switch fluorescence ratio of 1.02. TCTTCGACGT was tested, and the switch fluorescence ratio was 1.03. AGATCGGGGA showed a switch fluorescence ratio of 0.916. GAACGGTTAG showed a switch fluorescence ratio of 0.95. In the case of GCTTTAAATA, the switch fluorescence ratio is reported as 0.963. Sequence TCATATGCTC has a switch fluorescence ratio of 0.991. GACTATAATG showed a switch fluorescence ratio of 1.05. Sequence AGCCTCTATT has a switch fluorescence ratio of 1.01. Work on TGTGCCTGGT yielded a switch fluorescence ratio of 0.975. In the case of TGGCTATGAG, the switch fluorescence ratio is reported as 1. With GCGTCCCACA the switch fluorescence ratio was 0.977. AGCGCGGTCT gave a switch fluorescence ratio of 1.04. With CCGGAAAAAT the switch fluorescence ratio was 1.55. CCTATTATGC was tested, and the switch fluorescence ratio was 1.14. AATGAGGGCT was tested, and the switch fluorescence ratio was 0.989. In the case of TTGTGACGGT, the switch fluorescence ratio is reported as 0.976. CCCTCGTAGG gave a switch fluorescence ratio of 1.03. With GAGTCGACAA the switch fluorescence ratio was 1.03. In the case of TTCGGATACC, the switch fluorescence ratio is reported as 0.997. In the case of TCATTTCGAT, the switch fluorescence ratio is reported as 0.947. TAAAATAAA showed a switch fluorescence ratio of 0.997. TAATCTGTGG was tested, and the switch fluorescence ratio was 0.999. For GCTGAGGGCG, the switch fluorescence ratio was 1. TGTAAGCATC was tested, and the switch fluorescence ratio was 1.03. In the case of AAACAGGACT, the switch fluorescence ratio is reported as 1.08. In the case of GAACTATCCG, the switch fluorescence ratio is reported as 1.03. Work on CGTGAGTGAG yielded a switch fluorescence ratio of 0.988. With GGGTCTGGG the switch fluorescence ratio was 0.999. AAATTAAGT gave a switch fluorescence ratio of 0.994. Work on CTAGAAGGGC yielded a switch fluorescence ratio of 1.03. Sequence TGCACTGCGA has a switch fluorescence ratio of 1.06. Work on TTGACGGATT yielded a switch fluorescence ratio of 1.05. Sequence AGTATGTATC has a switch fluorescence ratio of 0.998. TCAAGCGCTC was tested, and the switch fluorescence ratio was 1.18. CCTCCCCTTG was tested, and the switch fluorescence ratio was 2.43. For CGGTAATGCA, the switch fluorescence ratio was 0.992. CTCTGAGGAA showed a switch fluorescence ratio of 1.09. Work on CAATGTCCGG yielded a switch fluorescence ratio of 1.03. GCGGAATTTG was tested, and the switch fluorescence ratio was 1.01. For TCCGAGGGTG, the switch fluorescence ratio was 1.69. CAGTGAAGGT gave a switch fluorescence ratio of 0.977. Sequence GGTGGCAGGT has a switch fluorescence ratio of 0.954. Work on ACTTCGGCTT yielded a switch fluorescence ratio of 1.02. Sequence ACTGTTTGCC has a switch fluorescence ratio of 1.3. Sequence ATTCGTTGTG has a switch fluorescence ratio of 0.944. Work on GAATTTAATC yielded a switch fluorescence ratio of 1.01. TCGCGGTGTG showed a switch fluorescence ratio of 1.03. CACCAATTAT gave a switch fluorescence ratio of 1.01. For ACTAATGGCA, the switch fluorescence ratio was 1.01. For TCGTGGACCT, the switch fluorescence ratio was 1.1. For CGACAGTGTC, the switch fluorescence ratio was 0.993. For TCATTAAGCG, the switch fluorescence ratio was 0.96. GCAAGGTGGG was tested, and the switch fluorescence ratio was 0.979. In the case of TTCCGTGGGG, the switch fluorescence ratio is reported as 1.02. Sequence AGTCTTGC has a switch fluorescence ratio of 1.02. Work on ACGAATATGA yielded a switch fluorescence ratio of 1.07. AACGGGGGAT showed a switch fluorescence ratio of 1.01. Work on CTGGAGTTTG yielded a switch fluorescence ratio of 0.981. Work on ACATATTGGG yielded a switch fluorescence ratio of 1.02. With ATCTAGGCCA the switch fluorescence ratio was 1. For AAATCCCATG, the switch fluorescence ratio was 1.01. GAGACCAGAA was tested, and the switch fluorescence ratio was 0.999. For GGGTCATATC, the switch fluorescence ratio was 1.01.
